Where “and” joins values, the source holds several entries; their conditions need not be identical. Equal entries are not always repeated. In all, about 200,000 compounds went through this assay and about 860 (0.43%) were called active. The call rests on the fitted dose curve; in most records, active means well fitted inhibition curve with a large enough effect; inconclusive means small, poorly fitted or top-dose-only effect; inactive means flat fitted curve, though single readings scatter. This is a selection; strong and weak results do not stand in their true shares. A structure can be active in one record and inactive in another.
Potency means the concentration at half of the fitted maximal effect.

Chain of UniProt P25779 (P25779 whole entry, looked up): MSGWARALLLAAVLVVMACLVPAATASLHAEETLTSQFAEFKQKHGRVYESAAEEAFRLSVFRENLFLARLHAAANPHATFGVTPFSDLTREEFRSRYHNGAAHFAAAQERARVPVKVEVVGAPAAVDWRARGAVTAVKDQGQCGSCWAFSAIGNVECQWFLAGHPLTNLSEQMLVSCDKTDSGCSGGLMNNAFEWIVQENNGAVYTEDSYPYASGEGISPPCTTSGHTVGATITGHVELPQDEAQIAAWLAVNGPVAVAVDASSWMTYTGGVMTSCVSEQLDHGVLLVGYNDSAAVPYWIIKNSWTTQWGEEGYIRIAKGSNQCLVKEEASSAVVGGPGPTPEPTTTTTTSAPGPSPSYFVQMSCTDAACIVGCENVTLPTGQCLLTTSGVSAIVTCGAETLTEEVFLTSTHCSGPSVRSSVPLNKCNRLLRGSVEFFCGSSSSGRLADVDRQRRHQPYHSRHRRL

This assay has as its target Cruzipain (Trypanosoma cruzi) (UniProt P25779). Description: qHTS Assay for Promiscuous and Specific Inhibitors of Cruzain (with detergent). Further: nearly all actives have a fitted effect of over 40% in size. The following applies: purified cruzain, Z-FR-AMC fluorescence, 0.01% Triton. Here is the method:
Cruzain (3.4.22.51) is a cysteine protease from the tropical parasite Trypanosoma cruzi. Dual qHTS experiment was performed against the NCGC compound collection in order to 1) identify novel inhibitors of the enzyme and 2) profile the compound collection for promiscuous inhibitors operating via colloidal aggregation (by performing detergent-free and detergent-containing comparison screens). Cruzain was assayed by the use of fluorogenic coumarin-based substrate Z-FR-AMC: proteolytic cleavage releases AMC, whose fluorescence is measured at 360 nm excitation and 450 nm emission. Purified cruzain was supplied by the labs of Prof. James McKerrow and Brian Shoichet, UC San Francisco.
This assay had 0.01% Triton X-100 concentration. See also releated assay "qHTS Assay for Promiscuous and Specific Inhibitors of Cruzain (without detergent)" with 0.00005% Triton X-100.
See following references for additional details:
Assay Provider: Shoichet, Brian; University of California, San Fancisco
Screening Center PI: Austin, C.P.
Screening Center: NIH Chemical Genomics Center [NCGC]
Buffer: 100 mM Sodium Acetate, pH 5.5, 5 mM DTT, Triton X-100 concentration: 0.01%.
Buffer in columns 3 and 4 as negative control (no enzyme).
Substrate solution: 2 uM final concentration of Z-FR-AMC (catalog number I-1160, Bachem) dispensed throughout the plate.
Enzyme: 1.5 nM Cruzain final concentration in columns 1, 2, 5-48. Column 1 is neutral (100% activity). Column 2 contained titration of covalent inhibitor K11777, starting concentration 1 mM, then 1:2 dilution in duplicate).
Three uL of enzyme or buffer were dispensed to 1536-well Greiner black solid bottom plates. Compounds and controls (23 nL) were transferred via Kalypsys PinTool. The plates were incubated for 15 min at room temperature, and then 1 uL of substrate solution was added to start the reaction. The plates were immediately transferred to and read 4 times every 30 seconds for 2 min on ViewLux High-throughput CCD imager (Perkin-Elmer) using 360 nm excitation and 450 nm emission fluorescence protocol. The fluorescence intensity difference between the third and the first time points (time lapse of 60 seconds) was used to compute reaction progress.
As for `CCCCCC#CCC#CCC#CCC#CCCCC(=O)O`, the max response, negative = inhibition is inactive: -4.2%.

Regarding `CCOc1ccc(-c2nnc(SCC(=O)NCc3ccc(Cl)cc3)o2)cc1`, the Potency was active: 25.1 µM.

On to `CCNc1ncc2nc(-c3ccccc3)c(=O)n(C)c2n1`, for which the max response, negative = inhibition is inactive: -0.657%.

`COc1cc(C2Oc3cc(C4Oc5cc(O)cc(O)c5C(=O)C4O)ccc3OC2CO)ccc1O` (configuration not stated): the max response, negative = inhibition is inactive: -11%.

Regarding `COc1cccc2c1C(=O)c1c(O)c3c(c(O)c1C2=O)C[C@@](O)(C(=O)CO)C[C@@H]3O[C@H]1C[C@H](N)[C@H](O)[C@H](C)O1`, the max response, negative = inhibition is inactive: -23%.

As to `CCOC(=O)c1sc2nc(C(C)C)c3c(c2c1N)CCC3`, the max response, negative = inhibition was inactive: 32.5%.

With `Cc1ccc(C(=O)NCCc2nc3ccccc3[nH]2)cc1[N+](=O)[O-]`, the Potency was active: 4.47 µM.

Regarding `O=c1cc(-c2ccccc2F)nc(-c2ccccc2F)o1`, the Potency was active: 4.47 µM.

`O=C(CN1C(=O)/C(=C\c2cccc(F)c2)Oc2ccccc21)N1CCN(c2ccccn2)CC1`: the max response, negative = inhibition was inactive: 43.9%.

As for `CC1(C)CC(=O)c2c(oc3cc(O)c(O)cc23)C1`, the max response, negative = inhibition is inactive: 1.06%.

`CCCCCCCCCCCCCCC[C@H](O)[C@H](N)CO`: the max response, negative = inhibition is inactive: -2.88%.

For the compound `Oc1c(Cl)cc(Cl)c(Cl)c1Cc1c(O)c(Cl)cc(Cl)c1Cl`, the max response, negative = inhibition was inactive: -22.8%.

Consider `COCCNC(=S)NCCCNc1nc2cc3c(cc2cc1C#N)OCO3`, for which the Potency is active: 17.8 µM.

`CCc1ccc(NC(=O)c2cc3sc(Cl)cc3n2C)cc1`: the max response, negative = inhibition was inactive: 31.9%.

For `CSc1nnc(-c2ccco2)c(-c2ccco2)n1`, the Potency was active: 14.1 µM.

`CC1=NCCc2c1[nH]c1cc(O)ccc21`: the max response, negative = inhibition was inactive: -2.11% and inactive: -12.5%.

On to `CCc1nc2cccnc2n1-c1ccc(CC(=O)Nc2ccccc2Cl)cc1`, for which the Potency is active: 12.6 µM.

As for `COC(=O)[C@H](NC(=O)c1cc(-c2ccccc2)nc2ccccc12)c1ccccc1`, the max response, negative = inhibition is inactive: -6.25%.

Regarding `N[C@@H](Cc1cc(I)c(Oc2ccc(O)c(I)c2)c(I)c1)C(=O)O`, the max response, negative = inhibition was inactive: -2.42%.

For the compound `CC1CCCC(=O)CCC/C=C/c2cc(O)cc(O)c2C(=O)O1` (configuration not stated), the max response, negative = inhibition is inactive: -2.36%.

`NC(=NCCCCCCN=C(N)/N=C(\N)Nc1ccc(Cl)cc1)/N=C(\N)Nc1ccc(Cl)cc1`: the max response, negative = inhibition was inactive: -27%.

Regarding `CC1=C(C(=O)OCc2ccccc2)C(c2ccc3ccccc3c2)NC(=O)N1CCCCCC(=O)O` (configuration not stated), the max response, negative = inhibition is inactive: -23.7%.

As to `C[C@H]1CCCC(=O)CCC/C=C/c2cc(O)cc(O)c2C(=O)O1`, the max response, negative = inhibition is inactive: -12.6% and inactive: -24.3%.

Consider `CCn1c(C(=O)Nc2ccsc2C(=O)OC)cc2sc(Cl)cc21`, for which the max response, negative = inhibition was inactive: 41.9%.

For the compound `O=C(CN1C(=O)/C(=C\c2ccc(F)cc2)Oc2ccccc21)N1CCN(c2ccccn2)CC1`, the max response, negative = inhibition was inactive: 63.4%.

For `CCn1c(C(=O)Nc2cc(C)cc(C)c2)cc2sc(Cl)cc21`, the max response, negative = inhibition is inactive: 8.3%.

As for `CCCn1c(=N)c(C(=O)NC2CCCC2)cc2c(=O)n3cccc(C)c3nc21`, the max response, negative = inhibition was inactive: -12.4%.

As to `COc1ccc([C@@H]2CNC(=O)C2)cc1OC1CCCC1`, the max response, negative = inhibition was inactive: 1.85% [middle of 4 runs].

As for `CCOC(=O)CNc1nc(C#N)nc(N2CCOCC2)n1`, the Potency is active: 2.24 µM.

In the case of `O=C(COC(=O)CNC(=O)C1CCCCC1)Nc1ccc(Cl)cn1`, the Potency is active: 6.31 µM.

On to `CCCCCCCCCCCCCCC[C@@H](O)[C@@H](N)CO`, for which the max response, negative = inhibition is inactive: -20.6% and inactive: 2.38%.

With `O=C1CSC(c2cn(-c3ccccc3)nc2-c2cc3ccccc3oc2=O)N1Cc1ccccc1` (configuration not stated), the Potency is active: 28.2 µM.

As to `COc1cccc2c1C(=O)c1c(O)c3c(c(O)c1C2=O)C[C@@](O)(C(=O)CO)C[C@@H]3O[C@@H]1C[C@H](N)[C@H](O)[C@H](C)O1`, the max response, negative = inhibition is inactive: -16.8%.

For the compound `Cc1c2ccncc2c(C)c2c1[nH]c1ccccc12`, the max response, negative = inhibition is inactive: -23.4% and inactive: -10.8%.

On to `CN(C)S(=O)(=O)c1ccc2[nH]cc(/C=C/c3nc4ccccc4c(=O)n3-c3ccccc3)c2c1`, for which the max response, negative = inhibition was inactive: 33.2%.

As to `COCCCn1c(=N)c(C(=O)NC2CCCCC2)cc2c(=O)n3ccccc3nc21`, the max response, negative = inhibition was inactive: -8.7%.

As for `CN(C(=O)COC(=O)CNC(=O)c1sc2ccccc2c1Cl)c1ccccc1`, the Potency was active: 8.91 µM.

For the compound `Nc1cccc(N)c1`, the Potency was active: 11.2 µM.

In the case of `COc1cccc2c1C(=O)c1c(O)c3c(c(O)c1C2=O)C[C@@](O)(C(=O)CO)C[C@@H]3OC1C[C@@H](N)[C@H](O)[C@H](C)O1` (some centres not stated), the max response, negative = inhibition is inactive: -6.14%.

Take `CCCCn1c2ccc(F)cc2c2nnc(SCCN(CC)CC)nc21`: the Potency was active: 15.8 µM.

For the compound `CCOC(=O)C1(C)C=C(Nc2ccc(C(=O)O)cc2)C(=O)N1c1ccc(C(=O)O)cc1` (configuration not stated), the max response, negative = inhibition is inactive: 180%.

As to `COc1ccc2oc(-c3ccc(C)c(NC(=O)CSc4ccc(Cl)cc4)c3)nc2c1`, the max response, negative = inhibition was inactive: 2.06%.

The values are drawn from PubChem BioAssay AID1478 (National Center for Advancing Translational Sciences (NCATS), 2009).
